# Results taken from the RNAGym collection of RNA variant scans (doi:10.1093/nar/gkz1192).
# The source gives no read counts; variants with many changes may rest on few reads.
# B1: CPEB3 Ribozyme (parent)
# chain: UAACAGGGGGCCACAGCAGAAGCGUUCACGUCGCAGCCCCUGUCAGAUUCUGGUGAAUCUGCGAAUUCUGCUGUAUAUCUC
# Variants of: B1
# Experiment: self-cleavage, relative activity (ratio to wild type); higher = more cleavage; in vitro, sequencing
# Method in brief: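 For each CPEB3 ribozyme variant, relative activity is its cleaved/total read fraction divided by the unmutated ribozyme's. Barcoded error-prone PCR libraries were transcribed by T7 RNA polymerase (5 hours, 37°C) and held in DNase I for 15 min before an EDTA stop, with cleavage occurring throughout. Template-switching reverse transcription and Illumina sequencing were used to read the RNAs. A 5-read minimum applied, and results are the mean of three batches.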
row,Variant,self-cleavage
1,UAACAGGGGGCCACAGCAGUAGCGUUCACGUCGCAGUCCCAGUCAGACUCUGGUGAAUCUGGGAAUUCUGCUGGAUAUCUC [A20U C37U U41A U48C C62G U74G],0.05
2,UAACAGGGGGCCACAGCAGUAGCGUUCACGUCACAGCCCCCGUCAGAUUCUGGUGAAUCUGCGAACUCUGCUGUAUAUCUC [A20U G33A U41C U66C],0.1
3,UAACAGGGGGCCACAGCAGUAGCGUUCAAGUCGCAGCCCCUGUCAGAUUUUGGUGAAUCUGCGAAUUCUGCUGUAUAUCUC [A20U C29A C50U],0.21
4,UAACAGGGGGCCACAGCAGUAGUGUCCACGUUGCAGCCCCUGUCAGAUUCUGGUGAAUCUGCGACUUCUGCUGUAUAUCUC [A20U C23U U26C C32U A65C],0.14
5,UAACAGGGGGCCACAGCAGUAGCGUUCACGUCGCAGCCCCUGUCGGAUUCUGGUGAAACUGCGAAUUCUGCUGUAUAUCUC [A20U A45G U58A],0.06
6,UAACAGGGGGCCACAGCAGUAGCGUACACGUCGCAGCCCCUGUCGGAUUCUGGUGACUCUGCGAAUUCUGCUGUAUAUCUC [A20U U26A A45G A57C],0.17
7,UAACAGGGGGCCACAGCAGUAGCGCUCACGUCGCUGCCCCUGUCAGAUUCUGGUGAAUCUGCGAAUUCUGCUGUAUAUCUU [A20U U25C A35U C81U],0.04
8,UAACAGGGGGCCACAGCAGUAGCAUCCACGUCGCAGCCCCUGUCAGAUUCUGGUGAACCUGCGAAUCCUGCCGUAUAUCUC [A20U G24A U26C U58C U67C U72C],0.21
9,UAACAGGGGGCCACAGCAGUAGCGAACACGUCGCAGCCCCUGUCAGAUUCUGGUGAAUCUGCGAAUUCUGCUGUAUAUCUC [A20U U25A U26A],0.08
10,UAACAGGGGGCCACAGCAGUAGCGUUCACGUCGCUGCCCCUGUCAGAUCCUGGUGAAUCCGCGAGUUCUGCUGUAUAUCUC [A20U A35U U49C U60C A65G],0.06
11,UAACAGGGGGCCACAGCAGUAGCGUUCACGUCGCAGCCUCUGUCUGAUUCUGGUGUAUCUGCGAAUUCUGCUGUAUUUCUC [A20U C39U A45U A56U A77U],0.15
12,UAACAGGGGGCCACAGCAGUAGCGUUCACGUCGCAGCCCCUGUCAGGUUCUUGUGAAUCUGCGAAUUCUGCUGUAUAUCUC [A20U A47G G52U],0.42
13,UAACAGGGGGCCACAGCAGUAGCGUUCACGUCGCAGCCACCGUCAGAUUCUGGUGAGUCUGCGAAUUCUGCUGUAUAUCUC [A20U C39A U41C A57G],0.13
14,UAACAGGGGGCCACAGCAGUAGCGUUCACGUCGCAGCCCCUGUCAGAUUCUGGUGAGUCUGCGAAUUCUGCUGUAUCUCUC [A20U A57G A77C],0.31
15,UAACAGGGGGCCACAGCAGUAGCGUUCACGUCGCAGCCCCUGUCUGAUUCUGGUGAAUCUGCGGACUCUGCUGUAUAUCUC [A20U A45U A64G U66C],0.14
16,UAACAGGGGGCCACAGCAGUAGCGUACACGUCACAGCCCCUGUCAGACUCUGGUGAAUCUACAAAUUCUGCUGUUUAUCUC [A20U U26A G33A U48C G61A G63A A75U],0.03
17,UAACAGGGGGCCACAGCAGUAGCGUUCACGUCGCAACCCCUGUCAGAUUCUGCUGAAUCUGCGAACUCUGCUGUAUAUCUC [A20U G36A G53C U66C],0.08

row,Variant,self-cleavage
1,UAACAGGGGGCCACAGCAGUAGCGUUCACGUCGGAGCCCCAGUCAAAUUCUGGUGAACCUGCGAAUUGUGCUGUAUAUCUC [A20U C34G U41A G46A U58C C68G],0.06
2,UAACAGGGGGCCACAGCAGUAGCGUUCACGUCGCAGCCCGUGUCAGAUUCUGGUGUAUCAGCGAAUUCUGCUGUAUAUCUC [A20U C40G A56U U60A],0.13
3,UAACAGGGGGCCACAGCAGUAGCGUUCACGUCGCAGCCCCUGUCAGGUUCUGGUGAAUCCGCGAAUUCUGCUGAAUGUCUC [A20U A47G U60C U74A A77G],0.06
4,UAACAGGGGGCCACAGCAGUAGCGCUCAUGUCGCGGCCCCAGUCAGAUUCUGAUGAAUCUGCGAAUUCUGCUGUAUAUCUC [A20U U25C C29U A35G U41A G53A],0.18
5,UAACAGGGGGCCACAGCAGUAGCGUUCACGUCGCAGCCUCUGUCGGAUUCUGGUGAAUCUGCGAAUUCUGCUGUAUAUCUC [A20U C39U A45G],0.18
6,UAACAGGGGGCCACAGCAGUAGCGUUCACGUCGCAGCCCCUGUCGGAUUCUGGGGAUUCCGCGAAUUCUGCUAUAUAUCUC [A20U A45G U54G A57U U60C G73A],0.3
7,UAACAGGGGGCCACAGCAGUAGAGUUCUCGUCGCAGCCCCAGUCAGAUUCUGGUGAAUCUGCGAAUUCUGCUGUAUAUCUC [A20U C23A A28U U41A],0.25
8,UAACAGGGGGCCACAGCAGUAGCGAUCACGUAGAAGCCCCUGUCAGAUUCUGGUGAAUCUGCGAGUUCUGCUGUAUAUCUC [A20U U25A C32A C34A A65G],0.07
9,UAACAGGGGGCCACAGCAGUAGCGUUCAAGUCGCUGCCCCUGUCAGAUUCAGGUGAAUCUGCGAAUUCUGCUGUAUGCCUC [A20U C29A A35U U51A A77G U78C],0.06
10,UAACAGGGGGCCACAGCAGUACCGUUCACGUCGCAGCCCCUGUCAGAUUCUGGUGAAUCUGCUAAUUCUGCUGCAUAUCUC [A20U G22C G63U U74C],0.25
11,UAACAGGGGGCCACAGCAGUAGCGUUCACGUCGCAGCCCCUGUCAGAUUCUGGUGGAUCUGCGAAUUCUGCUGAAUAUCUC [A20U A56G U74A],0.4
12,UAACAGGGGGCCACAGCAGUAGCGUUCACUUCGCAGCCCCUGUCAGAUGCUGGUGAAUCUGCGAAUUCUGCUGUAUAUCUC [A20U G30U U49G],0.12
13,UAACAGGGGGCCACAGCAGUAGCGUUCACGUCGCAGCCCCUGUCUGAUUCUGGUGAAUCAGCGAAUUCUGCUGUAUAUCUC [A20U A45U U60A],0.25
14,UAACAGGGGGCCACAGCAGUAGCGAUCGCGUCGCAGCCCCUGUCAGAUUCUGGUGAAUCUGCGAAUUCUGCUGUAUAUCUC [A20U U25A A28G],0.09
15,UAACAGGGGGCCACAGCAGUAGCGUUCACGUCGCAGCCCCUGUCAGAUUCUGGUGUAUCAGCGAAUUCUGCUGUAUAUCUC [A20U A56U U60A],0.31
16,UAACAGGGGGCCACAGCAGUAGCGUUCACGUCGCAGCCCCUGUCGGUUUCUGGUGAAUCUGCGAAUUCGGCUGUAUAUCUC [A20U A45G A47U U69G],0.26
17,UAACAGGGGGCCACAGCAGUAGCGUUCACGUCGCAGCCCCUGUCCAAUUCUGGUGAAUCUGCGAUUUCUGCUGUAUAUCUC [A20U A45C G46A A65U],0.08
